# Measured values taken from the RNAGym collection of RNA variant scans (doi:10.1073/pnas.2313332121).
# Variants at the background level are over-represented here.
# B1: TPR 5TU (parent)
# chain: GGAUCUUCUCGAUCUAACAAAAAAGACAAAUCUGCCACAAAGCUUGAGAGCAUCUUCGGAUGCAGAGGCGGCAGCCUUCGGUGGCGCGAUAGCGCCAACGUUCUCAACUAUGACACGCAAAACGCGUGCUCCGUUGAAUGGAGUUUAUCAUG
# Variants of: B1
# Assay: polymerase ribozyme fitness, log enrichment relative to wild type (log ratio); higher = more active; in vitro selection for triplet polymerase activity
# How it was run: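 Each subunit of a heterodimeric triplet polymerase ribozyme was mutagenized into a library by PCR, transcribed, and subjected to one round of in vitro selection, run in triplicate. Libraries were annealed with a biotinylated primer, the partner subunit and triplets, incubated frozen at −7 °C, and extended constructs were gel-excised, captured on streptavidin beads and recovered by RT-PCR. Input and output libraries were sequenced on Illumina, keeping genotypes with ≥10 input reads and ≥1 read per output. Fitness is log base 2 of genotype enrichment divided by wild-type enrichment, from inverse-variance-weighted replicate averages.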
row,Variant,polymerase ribozyme fitness (log ratio)
1,GGAUCUUCUCGAUCUAACACUAAUGUCAAAUCUGCCACAAAGCUUGAGAGCAUCUUCGGAUGCAGAGGCGGCAGCCUUCGGUGGCGCGAUAGCGCCAACGUUCUCAACUAUGACACGCAAAACGCGUGCUCCGUUGAAUGGAGUUUAUCAUG,≤ -4.2
2,GGAUCUUCUCGAUCUAACUAAAAAGACAAAUCUUCCACAAAGCUUGAGAGCAUCUUCGGAUGCAGAGGCGGCAGCCUUCGGUGGAGCGAUAGCGCCAACGUUCUCAACUAUGACACGCAAAACGCGUGGUCCGUUGAAUGGAGUUUAUCAUG,≤ -4.2
3,GGAUCUUCUCGAUCUAACACAAAUGACAAAUCUGCCACAAAGCAUGAGAGCAUCUUCGGAUGCAGAGGCGGCAGCCUUCGGUGGCGCAAUAGUGCCAACGUUCUCAACUAUGACACGCAAAACGCGUGCUCCGUUGAAUGGAGUUUAUCAUG,≤ -4.2
4,GGAUCUUCUCGAUCUAACUAAAAAGACAAAUCUGCCACAAAGCUUGAUAGCAUGUUCGGAUGCAGAGGCGGCGGCCUUCGUUGGCGCGAUAUCGCCAACGUUCUCAACUAUGACAGGCAAAACGAGUGCUCCGUUGAAUGGAGUUUAUCAUG,≤ -4.2
5,GGAUCUUCUCGAUCUAACACAAAAGGCAAAUCUGCCACAAAGCUUGAGAGCAUCUUCGGAUGCAGAGGCGGCAGCCUUCGGUGGCGCGAUAUCGCCAACGUUCUCAACUAUGACACGCAAAACGCGUGCUCCGUUGAAUGGAGUUUAUCAUG,≤ -4.2
6,GGAUCUUCUCGAUCUAACUAAAAAGACAAAUCUGCCACAAAGCUUGAGAGCAUCUUCGGAUGCAGAGGCGGCAGCCUUCGGUGGCGCGAUAGCGCCAACGUUCUCAACUAUGACACGCAAAACGCGUGCUCCGUUGAAUGAAGUUUAUCAUG,0.304
7,GGAUCUUCUCGAUCUAACUAAAAAGACAAAUCUGCCACAAAGCUUGAGAGCAUCUUCGGAUGCAGAGGCGGCAGCCUUCGGUGGCGCGAUAGCUCCUACGUUCACAACUAUGACACGCAAAACGCGUGCUCCGUUGAAUGGAGUUUAUCACG,≤ -4.2
8,GGAUCUUCUCGAUCUAACUAAAAAGACAAAUCUGCCACAAAGCUUGAGAGCAUCUUCGGAUGCAGAGGCGGCAGCCUUCGGUGUCGCGAUAGCGCCAACGUUCUCAACUAUGAAACGCAAAACGCGUGCUCCGUUGAAUGGAGUUUAUCAUG,≤ -4.2
9,GGAUCUUCUCGAUCUAACUAAAAAGACAAAUCAGCCAUAAAGCUUGAGAGCAUCUUCGGAUGCAGAGACGGCAGCUUUCGGUGGCGCAAUAGCGCCAACGUUCUCAACUAUGAGACGCAAAACGCGUGCUCCGUUGAAUGGAAUUUAUCAUG,≤ -4.2
10,GGAUCUUCUCGAUCUAACUAAAAAGACAAAUCUGCCACAAAGCUUGAGAGCAUCUUCCGAUGCAGAGGCGGCAGCCUUUGGUGGCGCGAUAGCGCGAACGUUCUCAACUAUGACACGCAAAACGCGUGCUCCGUUGAAUGGAGUUUAUCAUG,≤ -4.2
11,GGAUCUUCUCGAUCUAACACAAAAGACACAUCUGCCACAAAGCUUGAGAGCAUCUUCGGAUGCAGAGGCGGCAGCCUUCGGUGGCGGGAUAGCGCCAACGUUCUCAACUAUGACACGCAAAGCGCGUGCUCCGUUGAAUUGAGUUUAUCAUG,≤ -4.2
12,GGAUCUUCUCGAUCUAACUAAAAAGACAAAUCUGCCACAAAGCUUGAGAGCAUCUUCGGAUGCAGAGGCGGCAGCCUUCGGUGGCGCGAUAGCGCGAACGUUCUCAACUAUGAUACGCAAAACGCGUGCUCCGUUGAAUGGAGUUUAUCAUG,-2.99
13,GGAUCUUCUCGAUCUAACUAAAAAGACAAAUCUGCCACAAAGCCUUAGAGCAUCUUCGGAUGCAGCGCCGGCAGCCUUCGGUAGCGCGAUAGCGCCAACGUUCUCAACUAUGACACGCAAAACGUGUGCUCCGUUGAAUGGAGUUUAUCAUG,≤ -4.2
14,GGAUCUUCUCGAUCUAACACAAAAGACCAAUCUGCCACAAAGCUUGAGAGCAUCUUCGGAUGCAGAGGCGGCAGCCUUCGGUCGCGCGAUAGCGCCAACGUUCUCAACUAUGACACGGAAAACGCGUGCUCCGUUGAAUGGAGUUUAUCAUG,≤ -4.2
15,GGAUCUUCUCGAUCUAACUAAAAAGACAAAUCUGCCACAAAGCUUGAGAGCAUCUUCGGAUGCAGAGGCGGCAGCCUUCGGUGGCGCGAUAGCACCAACGUUCUCAACUAUGACACGCAAAACGCGUGCUCCGUUGAAUGGAGUUUAUCAUG,-1
16,GGAUCUUCUCGAUCUAACUAAAAAGACAAAUCUGCCACAAAGCUUGAGAGCAUCUACGGAUGCAGAGGCGGCAACCUUCGGUGGGGCGAUAGCGCCAACGUUCUCAUCUAUGACACGCAAAACGCUUGCUCCGUUGAAUGGAGUUUAUCAUG,≤ -4.2
17,GGAUCUUCUCGAUCUAACACAAAAGUCAGAUCUGCCACAAAGCUUGAGAGCAUCUUCGGAUGCAGAGGCGGCAGACUUUGGUGGCGCGGUAGCACCAACGUUCUCAACUAUGACACGCAAAACGCGUGCUCCGUUGAAUGGAGUUUAUCAGG,≤ -4.2
18,GGAUCUUCUCGAUCUAACUAAAAAGACAAACCUGCCACAAAGCUUAAGAGCAUCUUCGGAUGCAGAGGCGGCAGCCUUCGGUGGCGCGAUAGCGCUAACGUUCUCAACUAUGACACGCAAAACGCGUGCUUCGUUGAAGGGAGUUUAUCAUG,-2.16
19,GGAUCUUCUCGAUCUAACUAAAAAGACAAAUCUGCCACAAAGCUUGAGAGCAUCUACGGAUGCAGAGGCGGCAGCCUUCGGUGGCGCGAUUGCGCCAACGUUGUCAACUAUGACACGCAAAACGCGUGCUCCGUUGAAUGGAGUUUAUCAUG,≤ -4.2

row,Variant,polymerase ribozyme fitness (log ratio)
1,GGAUCUUCUCGAUCUAACUAAAAAGACAAAUCUGCCACAAAGCUUGAGAGCAUCUUCGGAUGCAGAGGCGGCAGCCUUCGGUGGCGAGAUAGCGCCAACGUUCUCGACUAUGACACGCAAAACGCGUGCUCCGUUGAAUGGAUUUUAUCGUG,≤ -4.2
2,GGAUCUUCUCGAUCUAACACAAAAGCCAAAUCUGCCACAAAGCUUGAGAGCAUCUUCGGAUGCAGAGGCGGCAGCCUUCGGUGGCGCGAUAGCGCCAACGUUCUCAACUAUGACACGCAAAACGCGUUCUCCGUUGAAUGGAGGUUAUCAUG,≤ -4.2
3,GGAUCUUCUCGAUCUAACUAAAAAGACAAAUCUGCCACAAAGCUUUAGAGCAUCUUCGGAUGCAGAGGCGGCAGCCUUCGGUGGCGCGCUAGCGCCAACGUUCUCAACUAUGACACGCAAAACGCGUGCUCCGUUGAAUGGAGUUUAUCAUG,-2.83
4,GGAUCUUCUCGAUCUAACUAAAAAGACAAAUCGGCCACAAAGCUUGAGAGCAUCUUCCUAUGCAGAGGCGGCAGCCUUCGGUGUCGCGAUAGCGCUAACGUUCUCAACUAUGACACGCAAAACGCGUGCUCCGUUUAAUGGAGUUUAUGAUG,≤ -4.2
5,GGAUCUUCUCGAUCUAACUAAAAAGACAAAUCUGCCACAAAGCUAGAGAGCAUCUUCGGAUGCAGAGGCGGCAGCCUUCGGUCGCGCGAUAGCGCCAACGUUCUCAACUAUGACACGCAAAACGCGUGCUCCGUUGAAUGGAGUUUAUCAUG,-3.67
6,GGAUCUUCUCGAUCUAACUAAAAAGACAAAUCUGCCACAAAGCUUGAGAGCAUCUUCGGAUGCAGAGGCGGCAGCCUUCGAUGGCGCGAUAGCGCCAACGUUCUCAACUAUGACACGCAAAACGCGUGCUCCGUUGAAUGGAGUUUAUCAUG,-0.839
7,GGAUCUUCUCGAUCUAACACAAAAGACAUAUCUGCCACAAAGCUUGAGAGCAUCUUUGGAUGCAGAGGCGGCAGCCUUCGGUGGCGCGAUAGCGCUAACGUUCUCAACUAUGACACGCAAAACGCGUGCUCCGUUGAAUGGAGUUUAUCAUG,≤ -4.2
8,GGAUCUUCUCGAUCUAACUAAAAAUACAAAUCUGCCACAACGCUUGAGAGCAUCUUCGGAUGCAGAGGCGGCAGCCUUCGGUGGCGCGAUAGCACCAACGUUCUCAACUAUGACACGCAAAACGCGUGCUCCGUUGAAUGGCGUUUAUCAUA,≤ -4.2
9,GGAUCUUCUCGAUCUAACACAACAGACAAAUCUGCCACAAAGCUUGAGAGCAUCUUCGGAUGCAGAGGCGGCAGCAUUCGGAGGUGCGUUAGUGCCAACGUUCUCAACUAUGACACGCAAAACGCGUGCUCCGUUGAAUGGAGUUCAUCAUG,≤ -4.2
10,GGAUCUUCUCGAUCUAACUAAAAAGACAAAUCUGCCACAAAGCUUGAUAGCAUCUUCGGAUGCAGAGGCGGCAGCCUUCGGUGGCGCGAUAGCGCCAACGUUCUCAACUAUGACACGCAAAACGCGUGCUCCGUUGAAUGGAGUUUAUCAUG,-0.613
11,GGAUCUUCUCGAUCUAACUAAAAAGACAAAUCUGCCACAAAGCUUGAGAGCAUCUUCGGAUGCAGAGGCGCCAGCCUUCGGUGGCGCGAUAGCGCCAACGUUCUCAACUAUGACACGCAAAACGCGUGCUCCAUUGAAUGGAGUUUAUCAUG,≤ -4.2
12,GGAUCUUCUCGAUCUAACACAAAAGACAUAUCUGCCACAAAGCUUGAGAGCAUCUUCGGAUGCAGAGGCGGCACCCUUCGGUGGCGUGAUAGGGCAAACGUUCUCAACUAUGACACGCAAAACGCGUGCUCCGUGGAAUGGAGUUUAACAUG,≤ -4.2
13,GGAUCUUCUCGAUCUAACUAAAAAGACAAAUCUGCCACAAAGCUUGAGAGCAUCUUCGGAUGCAGAGGCGGCAGCUUUCGGUGGCGCGAUAGCGCCAACGUUCUCAACUAUGACACGCAAAACGCGUGCUUCGUUGAAUGGAGUUUAUCAUG,0.231
14,GGAUCUUCUCGAUCUAACACUACAGACAAAUCUGCCACAAAGCUUGAGAGAAUCUUCGGAUGCAGAGGCGGCAGCCUUCGGUGGCGCGAUAGCGCCAACGUUCUCAACUAUGACACGCAAAAAGCGUGCUCCGUUGAUUGGAGUUUAUCAUG,≤ -4.2
15,GGAUCUUCUCGAUCUAACUAAAAAGACAAAUCUGCCACAAAGCUUGAGAGCAUCUUCGGAUGCAGAGGCGGCAGCCUUCCGUGGCGCGAUAGAGCCAACGUUCUCAACUAUGACACGCAAAACGCGUGCUCCGUUGAAUGGAGUUUAUCAUG,≤ -4.2
16,GGAUCUUCUCGAUCUAACACAAAAGACAUAUCUGCCACAAAGCUUGUGAGCAUCUUCGGAUGCAGAGGCGGCAGCCCUCGGUGGCGCGAUAGGGCCAACGUUCUCAACUAUGACACGCAUAACGCGUGCUCCAUUGAAUGGGGUUUAUCAUG,≤ -4.2
17,GGAUCUUCUCGAUCUAACACAAAAGACACAUCUGCCACAAAGCUUGAGAGCAUAUUCGGAUGCAGAGACGGCAGCCUUCGGUGGCGCGAUAGCGCCAACGUUCUCAACUAUGACGCGCAAAACGCGUGCUCCGUUGAAUGGAGUUUAUCAUG,≤ -4.2
18,GGAUCUUCUCGAUCUAACUAAAAAGACAAAUCUGCCACAAAGCUUGAGAGCAUCUUCGGAUGCAGAGGCGGCAGCCUUCGGUGGGGCGAUAUCGCCAACGUUCUCAACUAUGACACGCAAAAUGCGUGCUCCGUUGAAUGGAGUUUAUCAUG,-2.54
19,GGAUCUUCUCGAUCUAACACAAACGACAAAUCUGCCACAAAGCUUGAGAGAAUCUUCGGAUGCAGAGGCGGCACCCUUCGGUGGCGCGAUAGCUCCAACGUUCUCAACUAUGACACGCAAUACGCGUGCUCCGUGGAAUGGAGUUUACCAUG,≤ -4.2
